Data on 83 molecules can be found in ChEMBL document CHEMBL4888484, “Replenishing the malaria drug discovery pipeline: Screening and hit evaluation of the MMV Hit Generation Library 1 (HGL1) against asexual blood stage Plasmodium falciparum ,using a nano luciferase reporter read-out” (2022).

Among all 150,000 compounds or so, about 540 (0.36%) showed an effect of 50% or more. Some of the results follow.

The assay relates to Plasmodium falciparum. In words: Primary screen in NF54 nanoGlo assay, in single point, at 2uM, 72h; a lower Z score goes with more inhibition. Particulars: timepoint 72 hour. The assay is classed as functional, Erythrocyte.
As for `CCCN(CC(=O)NC(=O)NCC)[C@@H](C)c1ccc(Cl)c(Cl)c1`, the “% Inhibition” value was -3% and the Z score was 0.36.

As to `CC(C)c1nc(NC(=O)c2ccccc2OC2CCC2)n(C)n1`, the “% Inhibition” value is given as 2% and the Z score is -0.28.

`N#Cc1nccnc1O[C@H]1CC[C@H](NC(=O)c2ccco2)CC1`: the “% Inhibition” value is given as -11% and the Z score was determined as 1.31.

On to `CN(C)[C@@H](CNC1Cc2ccccc2C1)c1ccco1`, for which the “% Inhibition” value was -7% and the Z score is listed as 1.45.

For `COc1cccc(NC(=O)Nc2cc(C)cc(N3CCN(C)CC3)c2)c1`, the “% Inhibition” value is -2% and the Z score amounted to 0.15.

Regarding `O=C(Nc1cccc2[nH]ccc12)N1CCC[C@H]1c1cccs1`, the “% Inhibition” value is -7% and the Z score is on record as 0.95.

As for `CNC(=O)Cc1ccccc1NC(=O)[C@@H]1OCC[C@@H]1C(C)C`, the “% Inhibition” value came to 3% and the Z score is reported as -0.3.

Consider `O=C(NCc1nnc(C(=O)Nc2ccc(F)cc2)s1)Nc1ccc(Br)cc1F`, for which the “% Inhibition” value was determined as 13% and the Z score is -1.53.

Take `CCN(CCn1cccn1)Cc1cc2c(cc1Cl)OCO2`: the “% Inhibition” value is -12% and the Z score is recorded as 1.32.

Regarding `COCCOc1ccccc1CN1CCN(C)[C@H](c2nc(C)no2)C1`, the “% Inhibition” value was -5% and the Z score was 0.69.

Turning to `CC(C)(C)OC(=O)N1CCC2(CCC2=O)CC1`, the “% Inhibition” value is recorded as -4% and the Z score turned out to be 0.5.

Take `Cc1cc(-c2c(C)sc(C)c2S(=O)(=O)N2CCN(c3cccc(Cl)c3)CC2)[nH]n1`: the “% Inhibition” value is given as -11% and the Z score stood at 1.28.

Turning to `Cn1cc(CCNC(=O)[C@@H]2CC(c3ccc(Cl)cc3Cl)=NO2)cn1`, the “% Inhibition” value was -9% and the Z score stood at 1.6.

As for `C[C@@H](CC#N)NC(=O)c1cnn(C(C)(C)C)c1`, the “% Inhibition” value was -1% and the Z score is recorded as 0.23.

Regarding `Cc1noc(C)c1Cn1cccc1-c1nc(-c2ccc3c(c2)OCO3)no1`, the “% Inhibition” value is -1% and the Z score amounted to 0.28.

With `O=C(c1cnn(-c2ncc3c(n2)-c2ccccc2CCC3)c1C1CC1)N1CCCC[C@@H]1CO`, the “% Inhibition” value was -15% and the Z score is given as 1.89.

As to `CCc1ccncc1NS(=O)(=O)c1cn(C)nc1C1CCCC1`, the “% Inhibition” value was -17% and the Z score amounted to 3.42.

For the molecule `CC(C)Cc1noc(CN(C)C[C@H]2CCOC2)n1`, the “% Inhibition” value was 0% and the Z score is reported as -0.05.

For `CC(C)[C@H]1CN(Cc2ccncc2)C[C@@H]1NC(=O)N(C)C`, the “% Inhibition” value is recorded as -7% and the Z score was determined as 0.69.

`N#Cc1ccc(C2=CCN(C(=O)c3cncc(N4CCOCC4)c3)CC2)cc1`: the “% Inhibition” value is recorded as 11% and the Z score is -1.13.

With `CC(C)[C@H](Cn1ccnn1)NC(=O)c1ccc(Cl)s1`, the “% Inhibition” value was 15% and the Z score is -1.98.

Consider `COc1cccc(NC(=O)N2CC[C@H]3CC(=O)Nc4cccnc4OCC[C@H]3C2)c1`, for which the “% Inhibition” value came out at 26% and the Z score is reported as -2.96.

`NC(=O)c1cc(C(=O)NC2(c3c(Cl)cccc3Cl)CC2)co1`: the “% Inhibition” value is given as -1% and the Z score is 0.16.

For the molecule `O=C(NCC1CCN(c2cnccn2)CC1)Nc1cccs1`, the “% Inhibition” value was -9% and the Z score is on record as 1.49.

As to `COc1ccc(C2=NNC(c3ccc(Br)cc3)=Nc3ccc(F)cc32)cc1`, the “% Inhibition” value is recorded as -51% and the Z score is 5.95.

`O=S(=O)(c1ccc(-c2cnc(C3CCC3)o2)s1)N1CCN(c2ccc(Cl)cc2)CC1`: the “% Inhibition” value came to 6% and the Z score was -0.72.

`CC[C@H](NS(=O)(=O)c1ccnn1CC)c1cc(C)ccn1`: the “% Inhibition” value was -11% and the Z score came out at 0.94.

As for `CCC(=O)c1ccc(Oc2cc(C#N)c(C#N)cc2N2CCOCC2)cc1`, the “% Inhibition” value is reported as -11% and the Z score was 2.03.

For `CC1(C)C(=O)NCCN1C(=O)c1cc(-c2ccc(F)cc2)on1`, the “% Inhibition” value came out at 12% and the Z score was -1.42.

As for `C=CCC(O)(CC=C)CNC(=O)C[C@H](C)n1ccnc1`, the “% Inhibition” value is listed as -4% and the Z score is reported as 0.61.

In the case of `CS(=O)(=O)N1CCC[C@H]1c1nncn1-c1ccccc1`, the “% Inhibition” value is given as 4% and the Z score was -0.58.

Take `CCc1ncnc(NCCc2nccs2)c1F`: the “% Inhibition” value is -4% and the Z score is 0.4.

Take `CCCn1nc(C)c(CNC(=O)c2cnc[nH]2)c1C`: the “% Inhibition” value was -13% and the Z score was found to be 1.74.

`C[C@@H]1CN(C[C@@H]2CN(C(=O)c3cncc(Cl)c3)C[C@@H]2CO)C[C@H](C)O1`: the “% Inhibition” value is on record as -5% and the Z score is on record as 0.73.

For the molecule `COC(=O)[C@@H](C)NCc1cccc(C#N)c1`, the “% Inhibition” value is reported as -9% and the Z score came to 1.25.

With `Cn1cc(C(C)(O)CNC(c2ccccc2)c2ccc(F)cn2)cn1` (stereo unspecified), the “% Inhibition” value is -6% and the Z score was 1.07.

For the molecule `C=CCC[C@H](O)CN(Cc1ccccc1)Cc1c(C)nn(-c2ccccc2)c1Oc1ccc(OC)cc1`, the “% Inhibition” value is reported as 8% and the Z score is reported as -1.01.

As for `Cc1cccc(OCc2nc(C)c(C(=O)NCc3ccc4c(c3)OCO4)s2)c1`, the “% Inhibition” value was determined as 1% and the Z score is -0.06.

For `CC(C)c1ncc(CN2CCc3[nH]ncc3C2)s1`, the “% Inhibition” value is -3% and the Z score amounted to 0.6.

As for `Cc1ccc(F)c(NC(=O)c2cc(-c3cccc4ccccc34)[nH]n2)c1`, the “% Inhibition” value was 15% and the Z score is -2.22.

Take `COc1cc(=O)n2c(c1C(=O)N1CCN(c3ccc(Cl)cc3)CC1)CCCCC2`: the “% Inhibition” value is -10% and the Z score is on record as 1.1.

As to `COc1ccc(CN2CC[C@@H](N3CCC(C)CC3)CCC2=O)cc1`, the “% Inhibition” value was determined as 1% and the Z score was -0.13.

As to `CCN(Cc1nc(C)n[nH]1)Cc1c(F)cccc1Cl`, the “% Inhibition” value is -17% and the Z score was 1.51.

With `Cc1ccc(-c2nc3ccc(Cl)cn3c2Nc2ccc3c(c2)OCO3)o1`, the “% Inhibition” value is -9% and the Z score is given as 1.55.

Take `CC(C)c1nnc(-c2cccnc2N2CCN(C(=O)c3ccc4ccccc4n3)CC2)o1`: the “% Inhibition” value was -16% and the Z score is 1.53.

Consider `COc1ccc2c(c1)CCc1c(C(=O)NCCc3c[nH]cn3)n[nH]c1-2`, for which the “% Inhibition” value was -4% and the Z score was found to be 0.34.

With `COc1ccc(C(=O)Nc2nc3ccccc3n2CCN2CCCC2)cc1`, the “% Inhibition” value is listed as -4% and the Z score turned out to be 0.61.

For the molecule `c1ccc(-c2nc(CCNCc3cccc4cn[nH]c34)no2)nc1`, the “% Inhibition” value was -4% and the Z score worked out at 0.67.

Take `Cc1nc(-c2cc(S(=O)(=O)NCc3ccc(C)c(C)c3)c(C)s2)cs1`: the “% Inhibition” value stood at 6% and the Z score is listed as -0.72.

On to `C=C(C)COc1ccc2oc(-c3ccc(OC)cc3)c(C(=O)Nc3ccc4c(c3)OCO4)c2c1`, for which the “% Inhibition” value is -12% and the Z score came to 2.33.

Regarding `CS(=O)(=O)N[C@H]1CCCN(c2ncns2)C1`, the “% Inhibition” value was -9% and the Z score is given as 1.05.

For the molecule `O=C(Nc1cc(-c2ccccc2)ns1)[C@@H]1CCCN1C(=O)c1cccs1`, the “% Inhibition” value came to 0% and the Z score turned out to be 0.06.

As to `CCC(C)C(=O)Nc1cccc2c1CC(C)N(C(=O)C(C)CC)C2` (stereo unspecified), the “% Inhibition” value is given as -7% and the Z score is 1.24.

Turning to `O=C(Nc1ccccc1C(=O)NCc1ccccn1)c1ncc[nH]1`, the “% Inhibition” value is 4% and the Z score is -0.54.

Regarding `CCn1nccc1C(=O)N1CCC2(CC[C@@H]2OC)CC1`, the “% Inhibition” value is -2% and the Z score was 0.21.

As for `c1cc2c(cc1-c1cnc3n1C[C@H](CNC1CCCC1)OC3)OCO2`, the “% Inhibition” value is -5% and the Z score turned out to be 0.59.

`O=C(Cc1cscn1)N(C[C@H]1CCCO1)c1ccc(Br)cc1`: the “% Inhibition” value is -6% and the Z score worked out at 0.95.

Consider `CCCc1ccc(CN2CCn3nc(CN4[C@@H]5CC[C@H]4C[C@@H](O)C5)cc3C2)o1`, for which the “% Inhibition” value is -12% and the Z score worked out at 1.14.

Regarding `COc1ccc(OC)c(CNC2CCCC23CCCO3)c1` (stereo unspecified), the “% Inhibition” value is -2% and the Z score is 0.49.

Consider `CCOC[C@@H](O)CN(Cc1c(C)nn(-c2ccccc2)c1Oc1ccc(F)cc1F)CC1CC1`, for which the “% Inhibition” value was -1% and the Z score came out at 0.13.

Take `COc1ccc(-c2cc(NC(=O)c3ccc(C)c(NC(=O)c4ccco4)c3)ccc2OC)cc1`: the “% Inhibition” value was determined as 4% and the Z score is given as -0.66.

`COc1ccc(-c2ccc([C@H]3C[C@H](N)C3)cc2)c(CO)c1`: the “% Inhibition” value was -2% and the Z score is 0.28.

`CC(NC(=O)Nc1cccnc1-n1cccn1)C1CCCO1` (stereo unspecified): the “% Inhibition” value is on record as -12% and the Z score was 1.51.

On to `Cc1cc2c(-c3cccc4ccnn34)ncnc2s1`, for which the “% Inhibition” value is reported as 1% and the Z score is -0.16.

`O=C(Nc1ccc(N2CCN(c3ccccc3F)CC2)c(S(=O)(=O)N[C@H]2CCCc3ccccc32)c1)C1CCCCC1`: the “% Inhibition” value is -5% and the Z score is 0.87.

For the molecule `Cc1cccc(C(=O)Nc2nccn(-c3ccc4c(c3)CCC4)c2=O)c1`, the “% Inhibition” value amounted to 8% and the Z score was -1.07.

On to `Cc1cc2nc(C)c(CCC(=O)NC[C@H]3CN(Cc4ccccc4)CCO3)c(C)n2n1`, for which the “% Inhibition” value was -12% and the Z score turned out to be 1.8.

In the case of `Cc1ccc(S(=O)(=O)Nc2cc(C(=O)N3CCC[C@H](C)C3)ccc2N2CCNCC2)cc1C`, the “% Inhibition” value is listed as -6% and the Z score came to 0.56.

For the molecule `COc1ccc([C@H]2c3ccc(O)cc3Oc3ncn4nc(-c5ccc(Cl)cc5)nc4c32)cc1`, the “% Inhibition” value is -7% and the Z score is 1.1.

In the case of `CCC(CO)(CO)NC(=O)c1oc(Br)cc1C`, the “% Inhibition” value is reported as -17% and the Z score was 2.27.

For `Cc1noc(C)c1CN(C(=O)[C@H](C)Oc1ccc(F)cc1)c1ccccc1`, the “% Inhibition” value is on record as -4% and the Z score is given as 0.42.

For `O=C1CCn2ncc(-c3ccccc3)c2N1`, the “% Inhibition” value stood at 1% and the Z score is -0.1.

As to `COc1ccc(OC)c(-n2c(-c3ccccc3)cc(C(=O)N3CCN(Cc4ccccc4)CC3)c2C)c1`, the “% Inhibition” value is recorded as -8% and the Z score stood at 1.09.

On to `COc1cc2c(cc1-c1nccn1Cc1noc(C(N)=O)n1)OCCCO2`, for which the “% Inhibition” value is recorded as -11% and the Z score was 1.12.

For the molecule `CC(C)(Cc1ccc(O)cc1)C(=O)N1CCO[C@@]2(CCCOC2)C1`, the “% Inhibition” value is listed as -15% and the Z score was 2.2.

In the case of `Cc1cc(C(=O)NCc2ccc(OC[C@H]3CCCO3)cc2)[nH]n1`, the “% Inhibition” value is listed as -7% and the Z score worked out at 0.9.

Regarding `C[C@H]1CN(C(=O)c2cccc(Oc3cccc(C(F)(F)F)c3)c2)CCN1S(C)(=O)=O`, the “% Inhibition” value was 0% and the Z score was determined as 0.03.

Take `O=C(Nc1ccccc1Cl)N1CCC(N2CCc3sccc3C2)CC1`: the “% Inhibition” value was 43% and the Z score is reported as -3.99.

For `CCc1noc(C)c1C(=O)NC1(C)CCOC1C1CC1` (stereo unspecified), the “% Inhibition” value is listed as -9% and the Z score turned out to be 1.46.

Turning to `Cc1cc(C(=O)N2Cc3ccccc3C[C@@H]2C)nc2nc(O)[nH]c(=O)c12`, the “% Inhibition” value is recorded as -9% and the Z score came out at 1.64.

Turning to `C[C@@H](CC1CCCCC1)C(=O)NCCc1nccn1C(F)F`, the “% Inhibition” value is given as 27% and the Z score is -3.4.

As for `Cc1nc(CNC(=O)N[C@H]2CCCN(c3ccccc3F)C2)oc1C`, the “% Inhibition” value is -3% and the Z score was 0.48.

Turning to `Cc1c(-c2cccc(C(=O)NCCCC(=O)N(C)C)c2)cnn1C`, the “% Inhibition” value is on record as -18% and the Z score is listed as 1.66.

What is called % Inhibition is the relative decrease from the control value, in per cent.
